{"source": "paper PMC12848717", "about": "“Discovery of Encrypted Peptides in a Human Matrix Metallopeptidase” (JACS Au, 2025)", "tested_on": "RAW 264.7 murine macrophages", "details": "72 h, 100 μM", "note": "Square brackets hold non-standard residues; d marks the D form. Peptide text beside a SMILES is read from it.", "data": [{"smiles": "CC[C@@H](C)[C@@H](NC(=O)[C@@H](CCCNC(=N)N)NC(=O)[C@@H](Cc1ccccc1)NC(=O)[C@H](NC(=O)[C@@H](CC(C)C)NC(=O)[C@@H](Cc1c[nH]cn1)NC(=O)[C@@H](CCCCN)NC(=O)[C@@H](CCCCN)NC(=O)[C@@H](CCCNC(=N)N)NC(=O)[C@@H](Cc1c[nH]c2ccccc12)NC(=O)[C@@H](CCCNC(=N)N)NC(=O)CNC(=O)[C@@H](CC(C)C)NC(=O)[C@@H](CC(C)C)NC(=O)[C@@H](CC(C)C)NC(=O)[C@@H](Cc1ccc(O)cc1)NC(=O)[C@H]1CCCN1)[C@H](C)O)C(=O)N[C@H](CC(C)C)C(=O)N[C@H](CC(N)=O)C(=O)N[C@H](CC(C)C)C(=O)O", "note": "[D(P)YLL19] (H-[dP][dY][dL][dL][dL]G[dR][dW][dR][dK][dK][dH][dL][dT][dF][dR][dI][dL][dN][dL]-OH; N-terminus and C-terminus assumed)", "values": [{"measurement": "cell viability", "result": "above 70%"}]}]}
